We go through two compounds from ChEMBL document CHEMBL3632587, “Discovery of a Specific Inhibitor of Pyomelanin Synthesis in Legionella pneumophila” (J Med Chem, 2015).

In experiment [1] the test system is Legionella pneumophila. Put plainly: Inhibition of pyomelanin production in Legionella pneumophila 130b at <= 10 uM after 24 hrs.
The subject of experiment [2] is Legionella pneumophila. The experiment can be described thus: Inhibition of pyomelanin production in Legionella pneumophila 130b at 5 uM after 24 hrs.
Experiment [3] concerns Legionella pneumophila. Put plainly: Inhibition of pyomelanin production in Legionella pneumophila 130b at 0.1 to 40 uM after 24 hrs.

The structures appear in SMILES notation. Calls of active or inactive are those of the source. The calls are words filed in the database; no cut-off is given here.

Turning to `c1ccc2c(c1)CSc1sccc1C2n1ccnc1` (stereo not drawn), the inhibition result in experiment [1] and in experiment [2] was “Active” in each case.
As to `O=C(O)c1cc([N+](=O)[O-])cc2c1-c1ccc([N+](=O)[O-])cc1/C2=N/O`, in experiment [3], the inhibition result was “inactive”.
